In the RNAGym collection of RNA variant scans (doi:10.7554/elife.90254):
The source gives no read counts; variants with many changes may rest on few reads.

B1: LINE1-mini (parent)
chain: GGCAGAGCUCAACACAGCGUGGCAAAGUGGCUGUGGCUAGACUGCC

Variants of: B1
Assay: self-cleavage, relative activity (ratio to wild type); higher = more cleavage; in vitro, sequencing; the parent is a self-cleaving ribozyme

Row | Variant | self-cleavage
1 | A11U C13G U20C U28A G30C A39G G44A | 0
2 | G5U G27U G29A U43G | 0
3 | C8A U20A C46U | 0.17
4 | A24C U34C A39C C45A | 0.06
5 | A6G C8A U9A C23U A24G | 0.27
6 | C15A G29A C45G | 0.04
7 | C10A A11C G17A U20A A41C | 0.01
8 | A25C U32C C46A | 0.06
9 | A4U A25U A41G | 0.04
10 | A16G C31U G35C | 0.01
11 | C18A G22U G40U | 0.08
12 | C10A C15A A25C | 0.02
13 | A6U G22U U28C G29A G30C | 0.5
14 | A11U C18G G19U U38C | 0.01
15 | A6G G33A A39C A41G | 0.02
16 | U9C G35U G40A | 0.02
17 | G22C A26U C31A | 0.1
18 | C3G G22U A26G G29U G33U G36U A39G C45A | 0.08
19 | G2A A25C U34A | 0.51
20 | G5A G19C C46A | 0.27
21 | G1A C8A G21C C31G | 0.17
22 | A14U G17U G36A | 0.06
23 | U20G C23G A41U | 1.03
24 | A4G G22A A24C G33A | 0.56

Row | Variant | self-cleavage
25 | G2C C8U A16U U28A | 0.11
26 | A12G C23G A25C U34A | 0.04
27 | G30C C31U C37G | 0.07
28 | A4C C10A A24U G33A | 0.02
29 | C8U A16G C42U U43G G44U | 0.09
30 | A6C U20C U34G | 0.03
31 | A4C G5A C10U A11C | 0.02
32 | G22A G35A C45U | 0.25
33 | G2U C45U C46A | 0.06
34 | C8U U38G A39G | 0.2
35 | C3A G17U A25C | 0.24
36 | A11U C18A G21U | 0.35
37 | C18U C31A A41G U43C | 0
38 | A4C C23G G44U | 0.09
39 | C15A G19U U38C | 0.06
40 | C15A G17C C18A U28G C37A | 0.03
41 | A11U A12U G21C | 0.13
42 | A6C A14C G19C A26U | 0.02
43 | U9C A25C C42A U43C | 0.03
44 | G2U A12U C13A A16C A25G | 0.04
45 | A12C G36U A39U | 0.02
46 | A16G A24G U43G | 0
47 | U32G G36U A39G C45G | 0.01
48 | A4C G5U A11C C13A G33A G40C U43G | 0

Row | Variant | self-cleavage
49 | G1U C23G U32A | 0.03
50 | G1A G2C A12G G21U C23G U28C G35C A39U | 0.01
51 | G5C C8A U9C G17C C23A | 0.04
52 | A4G A6G G7A G17A C18G G40A | 0.15
53 | A25G A26C C42U U43A | 0.03
54 | A6C U20C A41U | 0.25
55 | C3G G7C C13A G19U G30U G40U | 0.02
56 | C10G G30U C37A C46A | 0.01
57 | G7U G19U G30A G35A | 0.11
58 | A14G C18A G30A | 0.69
59 | A11C G27U A41G G44A | 0.04
60 | G1U A12U C45U | 0.17
61 | C3G A11G A25G C31G | 0.01
62 | A14C A16C U34A A39C | 0.02
63 | G7A C13U A16G G19U C42U | 0.05
64 | G19U G22U A39G G40U | 0.02
65 | G1U A25C U38C | 0.16
66 | C3A C10U G21U | 0.21
67 | G2C U28G A39U C42U | 0.02
68 | G1C G17A A41C C45U | 0.01
69 | C8G C10U U32A G35C A41G C42U | 0.04
70 | G5U G17U U28A G29C | 0.02
71 | A4U U20G C37A | 0.02
72 | G5U U9A G35U | 0.44

Row | Variant | self-cleavage
73 | A4G G5A C10A | 0.07
74 | G1C G17C U32A C37G | 0.02
75 | C3A C13G A14U C23A A24U | 0.13
76 | G5U U9C A25U | 0.01
77 | A4U U9G G44A | 0.72
78 | G5U A14U C18U G22C C46A | 0.05
79 | G7C C10G G19U G29U C31G U43A | 0.02
80 | C23A U38A C42A C46A | 0.03
81 | C10G C15U A25C A26C U28C | 0.02
82 | U9A G21A C23A A25U C31A G40U | 0.03
83 | C3A A24G G29C | 0.05
84 | C18U G19U G30U | 0.09
85 | G7U U38A A41G | 0.03
86 | C23A C37A U38A C42U | 0.04
87 | C37G A41G G44C | 0
88 | G1U G7A A26U U28A | 0.18
89 | G2U C8G G27C C46U | 0.05
90 | C8G G27A G30A U34A | 0.03
91 | G2A U20G G36A C42U | 0.49
92 | C8G C13A A25G | 0.09
93 | G21U A26G C42G | 0.03
94 | G5U C23U A24U | 0.05
95 | A24G G30A C31A | 0.05
96 | G21A A26U G36A G40A | 0.36

Row | Variant | self-cleavage
97 | G7U C8A C10G A16G G19U C42G | 0.01
98 | G7C U9G G19A | 0.16
99 | G2A U9G A14G U20C G21A | 0.39
100 | A14C G19C A39U | 0.03
101 | C10A C13G G27U C31A | 0.03
102 | G30U U34A G36C | 0.05
103 | C8U G22A G29A G36C G40A C46G | 0.12
104 | G2U C3U G7A C8G A24C G44A | 0.04
105 | G27A C31A G44U | 0.04
106 | G7U C18A U43G G44C | 0.03
107 | C3U U20A A25U C42U | 0.03
108 | G7A C13A C45A | 0.63
109 | C15A C37U A39G | 0.02
110 | G19C C31G G40A | 0.04
111 | A4G U20A C37G A41C | 0.03
112 | A4C G29C U43G C45U | 0.06
113 | C18G G30A U43A | 0.06
114 | G1C G2U U20G | 0.06
115 | C3U U9A A11U | 0.05
116 | G1C A16C C23G G36C G44C | 0.01
117 | U32A C42U U43C G44C | 0.01
118 | C3U C8U A16G G44A | 0.05
119 | C8U A11U C15U C18G A25G A26C | 0
120 | G5U C18G G21U | 0.03

Row | Variant | self-cleavage
121 | G1C A6U G22U U32C G40A | 0.01
122 | G1A A11U G22U U38A | 0.04
123 | G7A C10U A12U | 0.03
124 | C3G A24C G36A G40A | 0.08
125 | G30U C31U G33A | 0.05
126 | C3G G29U G35A | 0.32
127 | C13G G21U C37A | 0.1
128 | C3G G17U C23U | 0.21
129 | G2U C10A G27A C37A | 0
130 | C3A G7U C8A U20A | 1.37
131 | A4G C18A C23A U32A G44A | 0.06
132 | G7A C13G A16U U20C G40U | 0.02
133 | G7U U28G G30U A39U | 0.29
134 | C3A G5A G27A G30U C31U | 0.41
135 | C31U U32A A39U | 0.06
136 | G22C U28C G30C | 1.39
137 | G17C G22A G44U | 0.08
138 | C18A C37G C42U | 0.02
139 | G2U A16G G40C | 0.03
140 | C10A U20A U38G | 0.02
141 | G5U A11G C23G A24C A26G G44U | 0.01
142 | C37U U38A G40C | 0.12
143 | C10U G22C A41G | 0.04
144 | G7C C8U G17U | 0.19

Row | Variant | self-cleavage
145 | A11U A16C C23A A24U | 0.01
146 | G19U U20A G30U C46U | 0.14
147 | C31G A41U G44U C46G | 0.01
148 | G22U G29U G35C C46G | 0.02
149 | C8A A16U C31U G35A C45U | 0.1
150 | G19C G21A U38A G44C | 0.03
151 | G2U C15A U20A G40U | 0.01
152 | G7A C8U U28A | 0.08
153 | A24G G29A C42G | 0.07
154 | G27A G29A C45G | 0.19
155 | A4U C15U G33U | 0.05
156 | G17U G21A G40C U43C | 0.05
157 | C8A U38A C42U | 0.22
158 | G1A A14G G22U | 0.74
159 | G5C A26G G30U C37A | 0.04
160 | A6U G7A U43A | 0.07
161 | G2A G29U U32C G33A | 0.19
162 | G7A C18U G27U | 0.09
163 | G1C C8A G27U U34A G44U | 0.09
164 | G2C U9A G29U | 0.08
165 | G2A A6G G44U | 0.08
166 | G29C G33A G40U | 0.06
167 | A14C A24C G29U G44C | 0.06
